PubChem BioAssay AID488969 (Vanderbilt High Throughput Screening Facility, 2010)
Over roughly 110,000 compounds, “z-score” has its median near -0.1; the highest 2% begin near 2. The list shows a part of the results.

Molecular target: Metabotropic glutamate receptor 8 (Rattus norvegicus) (UniProt P70579)
Experiment: rat mGluR8 modulators via GIRK flux, primary screen, cell-based, thallium flux, HTS (AID 488969)
Details: HEK293 rat mGluR8, GIRK (G protein-gated inwardly rectifying potassium channel) thallium flux, FluoZin2; at 10 µM; stronger effect = higher value; submaximal glutamate (EC20) added with thallium

Sequence of UniProt P70579 (P70579 whole entry, looked up): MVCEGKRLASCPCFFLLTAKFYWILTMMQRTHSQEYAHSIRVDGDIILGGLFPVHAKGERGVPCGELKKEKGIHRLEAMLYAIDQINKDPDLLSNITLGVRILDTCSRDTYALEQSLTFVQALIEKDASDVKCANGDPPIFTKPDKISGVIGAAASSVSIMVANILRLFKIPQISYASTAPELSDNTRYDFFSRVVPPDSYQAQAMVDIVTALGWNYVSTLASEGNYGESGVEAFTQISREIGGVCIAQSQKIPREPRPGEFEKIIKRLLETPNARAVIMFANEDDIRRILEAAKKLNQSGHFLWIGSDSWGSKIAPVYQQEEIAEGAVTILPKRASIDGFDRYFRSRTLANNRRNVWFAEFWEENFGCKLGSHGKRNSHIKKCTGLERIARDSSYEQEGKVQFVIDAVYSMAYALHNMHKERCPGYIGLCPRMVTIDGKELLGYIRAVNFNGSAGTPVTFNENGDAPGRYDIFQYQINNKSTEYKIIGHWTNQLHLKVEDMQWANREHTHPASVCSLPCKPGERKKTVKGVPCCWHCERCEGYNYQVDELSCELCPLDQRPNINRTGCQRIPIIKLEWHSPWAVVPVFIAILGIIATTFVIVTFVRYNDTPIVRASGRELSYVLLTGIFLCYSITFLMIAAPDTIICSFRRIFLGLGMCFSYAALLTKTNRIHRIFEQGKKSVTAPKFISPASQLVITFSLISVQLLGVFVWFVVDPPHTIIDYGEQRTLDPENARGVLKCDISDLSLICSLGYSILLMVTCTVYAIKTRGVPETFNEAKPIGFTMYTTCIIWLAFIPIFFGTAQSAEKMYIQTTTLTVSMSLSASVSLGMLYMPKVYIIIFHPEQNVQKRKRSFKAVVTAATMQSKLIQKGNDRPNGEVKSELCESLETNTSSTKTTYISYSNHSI

| SMILES | z-score |
| --- | --- |
| O=C(COc1ccccc1)NC(=S)Nc1cccc(NC(=O)c2ccccc2Cl)c1 | -0.164 |
| Cc1ccc(Cn2ccc(NC(=O)c3cc(-c4cccc(Cl)c4)on3)n2)cc1 | 0.187 |
| COc1ccc(OCC(=O)NNC(=O)c2cc3ccccc3o2)cc1 | 1.23 |
| CCOC(=O)c1c(-c2ccc(C)o2)csc1NC(=O)CSc1ncn[nH]1 | -0.179 |
| Cc1ccc(CN2C(=O)/C(=C\c3ccc(C(=O)NCc4cccnc4)cc3)Oc3ccccc32)cc1 | -0.188 |
| COc1cc(C(=O)Nc2cccc(-c3nc4cc(C)cc(C)c4o3)c2)cc(OC)c1OC | -0.408 |
| CCCCOC(=O)Nc1nnc(CC)s1 | 0.304 |
| CC(NC(=O)C12CC3CC(CC(C3)C1)C2)c1ccc2c(c1)OCCO2 (stereo not given) | -0.46 |
| Clc1ccsc1-c1csc(-c2cccnc2)n1 | -0.284 |
| Nc1ccccc1S(=O)(=O)c1ccccc1N | 0.302 |
| O=C(NCc1ccco1)C12CC3CC(CC(C3)C1)C2 | 0.135 |
| CC(=O)Oc1ccc(C(=O)Nc2nccs2)cc1 | -0.419 |
| Cc1ccc2nc(SC(C)C(=O)Nc3cccc([N+](=O)[O-])c3)[nH]c2c1 (stereo not given) | -0.0685 |
| CCCCOc1ccc(C(NC(=O)OCC)NC(=O)OCC)cc1 | 0.387 |
| Cc1cc(=O)[nH]c(N/N=C/c2ccc(OC(=O)c3ccco3)cc2)n1 | 0.159 |
| Cc1cccc(NC(=O)c2sc(Cl)nc2-c2ccccc2)c1 | -0.374 |
| CC(=O)c1cc2c(cc1NC(=O)CCCC(=O)O)OCO2 | 0.188 |
| CCOCC(=O)Nc1cc(OC)c(Cl)cc1OC | -0.0397 |
| Nn1c(SC/C=C/c2ccccc2)nnc1-c1ccncc1 | -0.0688 |
| COC(=O)c1ccc(CSc2nc3cc(Cl)ccc3s2)o1 | -0.05 |
| C/C(=N/OCC(=O)NCCCCCCNC(=O)CO/N=C(/C)c1cccs1)c1cccs1 | -0.0928 |
| CCN(CC)C(=O)CSc1nc2ccccc2c(=O)n1OC(C)C | -1.93 |

| SMILES | z-score |
| --- | --- |
| COc1ccc(CC(=O)Nc2ccc(-c3nnc(-c4ccccc4)o3)cc2)cc1 | -0.584 |
| CC(=O)Nc1ccc(OCC(O)CN2C(C)(C)CC(O)CC2(C)C)cc1 (stereo not given) | -0.152 |
| Cc1cc(S(=O)(=O)NC2CCCCC2)ccc1OCC(=O)NCc1cccnc1 | -0.012 |
| CCOC(=O)c1c(C)[nH]c(C(=O)N/N=C/c2cccc(OC)c2)c1C | -0.9 |
| C=CCn1c(SCc2c(C)noc2C)nc2sc3c(c2c1=O)CCCCC3 | -0.236 |
| O=C(c1ccccc1)C(CCC(CN1CCOCC1)C(=O)c1ccccc1)CN1CCOCC1 (stereo not given) | 0.24 |
| CCC(=NC1CC(C)(C)NC(C)(C)C1)C1=C(O)CC(C)(C)CC1=O | -0.141 |
| Fc1ccccc1/C=N/Nc1nn[nH]n1 | -0.0496 |
| CC1CC(O)(Cc2ccccc2)C(C)CN1C (stereo not given) | -0.335 |
| Cc1ccc(S(=O)(=O)N2CCN(CC(=O)Nc3ccc([N+](=O)[O-])cc3)CC2)cc1C | -0.161 |
| COC(=O)c1c(-c2ccc(Br)cc2)noc1N | -0.402 |
| O=C1CC(c2ccccc2)Cc2nc(N3CCc4ccccc4C3)ncc21 (stereo not given) | 0.392 |
| CCOC(=O)c1[nH]c(C(=O)O)c(CCC(=O)OC)c1C | -0.115 |
| O=C(Nc1ccc(C(F)(F)F)cc1)C1(c2ccccc2)CC1 | -0.816 |
| C=CCn1c(SCn2nnc3ccccc3c2=O)nnc1-c1ccc(Cl)cc1 | -0.876 |
| COc1ccc(CCN2C(=O)NC(NC(=O)CC(C)C)(C(F)(F)F)C2=O)cc1OC (stereo not given) | -0.18 |
| Brc1ccc(-c2nn3c(Cc4ccccc4)nnc3s2)o1 | -1.76 |
| O=C1CC(=C(c2ccccc2)c2ccccc2)C(=O)N1CCCCN1CCN(c2cccc(Cl)c2)CC1 | -0.136 |
| CCc1cc2c(NCCN3CCCCC3)ncnc2s1 | 0.793 |
| COc1ccc(S(=O)(=O)NC2CCCCC2)cc1C | -0.174 |
| CCOC(=O)c1ccc(NC2OC(=O)c3ccccc32)cc1 (stereo not given) | -0.214 |
| Cc1ccc(S(=O)(=O)N2CCN(C(=O)c3cc4c(C)nn(-c5ccccc5)c4s3)CC2)cc1 | -0.0453 |

| SMILES | z-score |
| --- | --- |
| O=C(CCl)c1ccc(Cc2ncc(C(F)(F)F)cc2Cl)s1 | -0.0387 |
| O=C(/C=C/c1ccc(F)cc1)Nc1nc2ccccc2[nH]1 | -0.235 |
| CN(C)c1ccc(/C=C2/C(=O)N(c3ccc([N+](=O)[O-])cc3)N=C2N2CCOCC2)cc1 | -0.0271 |
| Cc1ccc(C(=O)COC(=O)CNC(=O)CN2C(=O)c3ccccc3C2=O)cc1 | -0.0776 |
| Cc1cc(NC(=O)CC23CC4CC(C2)CC(CC(=O)Nc2cc(C)on2)(C4)C3)no1 | -0.164 |
| COc1ccc(CC(=O)N2N=C(C)CC2(O)c2cccnc2)cc1 (stereo not given) | -0.159 |
| CCN=C(N/N=C/c1ccc([N+](=O)[O-])cc1)SC | -0.246 |
| Cc1ccc(S(=O)(=O)N2CCCCC2)cc1NC(=O)CCOc1ccccc1 | -0.138 |
| CCc1ccc(C(=O)CN2C(=O)C(C)N(c3ccc(C)cc3)C2=O)cc1 (stereo not given) | -0.302 |
| S=C(Nc1ccc(Cl)cc1)NC1CC2CCCC(C1)N2C1CC1 (stereo not given) | 1.89 |
| Cc1ccc(C(=O)C2OC(=O)C(C)(C)C(=O)C2(C)C)cc1 (stereo not given) | 0.0435 |
| CCn1c(-c2cc(Br)cc(OC)c2O)nc2cc(S(=O)(=O)N(C)C)ccc21 | -1.09 |
| CC(C)c1ccc(SCc2noc(C(=O)NCC3CCCO3)c2C(=O)O)cc1 (stereo not given) | -0.368 |
| O=C1Cc2ccccc2Sc2ccccc21 | -0.0326 |
| Cc1nc(Cl)sc1C(=O)Nc1cccc2ccccc12 | -0.365 |
| CC(C)CC(=O)OCc1cn(-c2ccccc2)nn1 | 0.0165 |
| O=C(Nc1cccc(F)c1)N(Cc1ccc(Cl)cc1)CC(O)C(F)(F)F (stereo not given) | 0.0492 |
| O=C(OCc1cnc(Cl)s1)c1cccc(Cl)c1 | -0.021 |
| CN1CCN(C(=O)/C(=C/c2ccccc2)c2ccccc2)CC1 | -0.295 |
| CCCCC(=O)Nc1cc(OC)c(NC(=O)C2CCCCC2)cc1OC | -0.2 |
| CCOC(=O)N1CCN(C(=O)c2cc(-c3ccc(OCC)cc3)nc3ccccc23)CC1 | -0.576 |
| Cc1cccc(C(C)Nc2ccc([N+](=O)[O-])cn2)c1 (stereo not given) | -0.34 |

| SMILES | z-score |
| --- | --- |
| O=C(C1CCN(S(=O)(=O)c2cccs2)CC1)N1CCN(c2ccccc2)CC1 | -0.172 |
| CCOC(=O)N1CCC(NC(=O)CSCc2nc(-c3sccc3C)oc2C)CC1 | 0.18 |
| O=C1CC(C(=O)Nc2ccc(F)cc2)S/C(=N\N=C\c2ccco2)N1 (stereo not given) | -0.192 |
| Cc1cc(Cl)c(OCCCN(C)C)c(Br)c1 | -0.483 |
| COc1ccc(OC)c(-c2nc(C(N)=O)c3[nH]c(=O)n(-c4ccc(F)cc4)c3n2)c1 | -0.455 |
| Cc1cc(C)nc(Sc2nc(C)nc3c2oc2ccccc23)n1 | -0.19 |
| COCCN(C(=S)Nc1c(C)cc(C)cc1C)C(C)c1cccnc1 (stereo not given) | -0.1 |
| Nc1ccc2oc(-c3cccc4ccccc34)nc2c1 | -0.0827 |
| O=C(COC(=O)CCc1ccccc1)Nc1ncc(Cl)cc1Cl | -0.612 |
| CC(C)(C)NC(=O)Cn1c(SCC(=O)Nc2nccs2)nc2ccccc21 | -0.178 |
| O=C(Nc1cccc(F)c1)C1CCCN1S(=O)(=O)c1cccc2cccnc12 (stereo not given) | -0.182 |
| CC(C)CNc1nc(Oc2ccc(=O)n(C)n2)nc(N2CCOCC2)n1 | 0.896 |
| NC(=O)c1ccccc1OCCOCCOCCOc1ccccc1C(N)=O | 0.836 |
| COc1ccc(C(O)P(=O)(OCC(C)C)OCC(C)C)c(OC)c1 (stereo not given) | -0.17 |
| CCOc1ccccc1N1CC(C(=O)Nc2ccc(C(=O)O)cc2)CC1=O (stereo not given) | 0.0337 |
| CCOc1ccc(CCNC(=O)C2CCN(S(=O)(=O)N3CCOCC3)CC2)cc1OCC | 0.142 |
| COc1ccc(NS(=O)(=O)c2ccc(NC(=S)NC(=O)/C=C/c3ccccc3)cc2)nn1 | -0.25 |
| CCN1CCN(Cc2nc3c(c(=O)n(C)c(=O)n3C)n2C(C)C(C)=O)CC1 (stereo not given) | 1.36 |
| Cn1cccc1Cc1nnc(SCC(=O)N2CCCCCC2)n1CCc1ccccc1 | -0.547 |
| CCc1ccccc1NC(=O)CSc1nnc([C@H](CCSC)NC(=O)OC(C)(C)C)o1 | -0.132 |
| Cc1nc2ccccc2n1CC(O)COC1CCCCC1 (stereo not given) | -0.492 |
| Cc1cccc(C2C3=C(Nc4[nH]n(-c5ccccc5)c(=O)c42)c2ccccc2C3=O)c1 (stereo not given) | -0.621 |

| SMILES | z-score |
| --- | --- |
| O=C(N(Cc1ccccc1)c1ccccn1)C12CC3CC(CC(C3)C1)C2 | -0.634 |
| O=C(/C=C/c1ccc(F)cc1)NC(=S)NNC(=O)c1cccnc1 | -0.12 |
| COc1ccc(C(=O)OCC(=O)Nc2ccc(F)c(F)c2)cc1OC | -0.329 |
| O=C(O)c1oc2ccc(Br)cc2c1-n1cccc1 | -0.973 |
| COc1ccc(C(CC(=O)c2ccc(C)cc2)C(C#N)C#N)cc1OC (stereo not given) | -0.273 |
| CC(=N\Nc1ccc(Cl)cc1)/C(=N/O)C(=O)Nc1ccccc1 | 0.0464 |
| COc1ccc(C(=O)Oc2ccc3oc(=O)sc3c2)cc1 | 0.177 |
| O=C(Nc1nc2c(s1)CCCC2)c1cc(-c2ccncc2)nc2ccccc12 | -0.0362 |
| Cn1c(=O)[nH]c(=O)c2c1nc(SCCN1CCOCC1)n2Cc1ccccc1 | -0.109 |
| CC(=O)Nc1nc2c(c3c1c(=O)oc1ccccc13)CC(C)CC2 (stereo not given) | -0.424 |
| O=S(=O)(Nc1nc2ccccc2nc1Cl)c1ccc2ccccc2c1 | -0.627 |
| O=C(O)c1nc(N2CCOCC2)nc(N2CCOCC2)n1 | -0.103 |
| CCOC(=O)N1CCN(C(=O)CN(C2CCCCC2)S(=O)(=O)c2ccc(F)cc2)CC1 | 0.315 |
| O=C(Cn1nc(-c2ccccc2)ccc1=O)NCCN1CCN(c2cccc(Cl)c2)CC1 | -0.34 |
| CCOC(=O)N1CCN(C(=O)c2ccc(NS(C)(=O)=O)cc2)CC1 | 0.167 |
| CCn1cc(Br)c(C(=O)NN)n1 | -0.14 |
| CC(C)(C)c1ccc(C(=O)NCCCN2CCN(CCCNC(=O)c3ccc(C(C)(C)C)cc3)CC2)cc1 | -0.701 |
| Cc1ccc(S(=O)(=O)N2CCN(C(=O)CSc3nnc(-c4ccco4)o3)CC2)cc1 | -0.115 |
| CCN1C(=O)CC(C(=O)NC)SC1=Nc1cc(Cl)c(O)c(Cl)c1 (stereo not given) | -0.672 |
| Cc1ccc(-n2nnnc2SCC(=O)Nc2nc(-c3ccc(F)cc3)cs2)cc1C | 0.0603 |
| [O-][n+]1onc2c3cc(-c4ccccc4)nnc3ccc21 | -0.825 |
| CCSc1ncc(C)cc1[N+](=O)[O-] | -0.12 |
